Laboratory results from a compilation of properties of binary mixtures (doi:10.1016/j.jct.2022.106742).
Some of these densities may be calculated back from excess volumes.

Assay: xn = mol fraction of the nth substance listed
Settings: 100 kPa

CC[n+]1ccn(C)c1.O=S(=O)([O-])C(F)(F)F + CCO
mass density [kg/m3]
Settings	298.15 K	303.15 K	308.15 K
x1 = 0.0516	878.6	874.2	869.7
x1 = 0.1001	–	–	939.9
x1 = 0.2004	1058.6	1054.3	1049.8
x1 = 0.2936	1133.4	1129.3	1124.8
x1 = 0.3991	1197.9	1193.5	1189.3
x1 = 0.4994	1245.8	1241	1236.8
x1 = 0.6018	–	–	1276
x1 = 0.6992	1315.5	–	–
x1 = 0.7899	–	1333.8	1329.7
x1 = 0.8994	1363.1	–	1353.7
x1 = 0.9499	1372.9	1367.4	–
x1 = 1	–	1376.3	1372.2

CCO + CC[n+]1ccn(C)c1.O=S(=O)([O-])C(F)(F)F
x2 = 0
Settings	mass density [kg/m3]
298.15 K	786.1
303.15 K	781.9
